Laboratory results: the supplement of paper PMC6206098
± gives the uncertainty stated by the source. Shown are siRNA guide strands that differ only in the seed, positions 2 to 7.

Legend:
3LL = test: cell viability relative to siNT1 control; higher = less toxic; conditions: concentration: 10 nM; 96 h; Mus musculus;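 further: Luminescence-based viability of cells reverse transfected in 384-well plates with lipid-complexed siRNAs built on a non-toxic 19mer backbone whose passenger strand carries 2′-O-methyl groups at positions 1 and 2, triplicates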
Protocol: (§1)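 Arrayed screen of 4096 siRNA duplexes, each carrying one of all possible 6mer seeds at guide-strand positions 2-7 in a fixed neutral 19mer scaffold (constant flanks: U at position 1, then ACAUGUAAACCA, plus a 3' AA overhang). The passenger strand is 2'-O-methylated at positions 1-2 so only the guide strand loads into RISC. Duplexes were reverse-transfected at 10 nM with RNAiMAX in triplicate in 384-well plates; viability was read by CellTiter-Glo ATP content 96 h after transfection. Values are % viability normalised to lipid-only wells (HeyA8, H460, M565) or to siNT1 (3LL).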

H460 = test: cell viability relative to lipid-only control; HeyA8 human ovarian and H460 human lung cancer; M565 mouse liver and 3LL mouse lung cancer; siNT1 is a non-toxic control siRNA; higher = less toxic; conditions: concentration: 10 nM; 96 h; Homo sapiens
Protocol: as §1

HeyA8 = test: as above; conditions: concentration: 10 nM; 96 h; Homo sapiens
Protocol: as §1

M565 = test: as above; conditions: concentration: 10 nM; 96 h; Mus musculus
Protocol: as §1
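Wherever cell viability relative to lipid-only control is given: reverse lipid transfection in 384-well plates, in triplicate, of duplexes on a non-toxic 19mer backbone with passenger strand 2′-O-methylated at positions 1 and 2, luminescence viability read-out.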

Sequence | cell viability (3LL) [%] | cell viability (H460) [%] | cell viability (HeyA8) [%] | cell viability (M565) [%]
UUGUGCCACAUGUAAACCAAA | 35 ± 9.1 | 52.4 ± 5.6 | 48.6 ± 4.3 | 82.4 ± 7.5
UCACUAAACAUGUAAACCAAA | 98.1 ± 15 | 34.8 ± 2.8 | 88.6 ± 4.5 | 83.4 ± 6.8
UGUCCAUACAUGUAAACCAAA | 34.1 ± 3.6 | 49.6 ± 6.2 | 54.5 ± 8.3 | 21.1 ± 5.2
UACAGAUACAUGUAAACCAAA | 36.2 ± 5 | 39.1 ± 1.8 | 4.95 ± 0.68 | 10.9 ± 0.87
UGGUCUGACAUGUAAACCAAA | 70.3 ± 3.8 | 25.1 ± 1.6 | 14.1 ± 1.3 | 79.4 ± 14
UGAUUCUACAUGUAAACCAAA | 5.37 ± 1.7 | 49.6 ± 6.9 | 37 ± 0.64 | 10.1 ± 0.59
UCCCCCGACAUGUAAACCAAA | 99.2 ± 13 | 85.6 ± 17 | 84.2 ± 2.4 | 57.7 ± 11
UCUAUAUACAUGUAAACCAAA | 91.5 ± 11 | 53.7 ± 2.6 | 75.4 ± 5 | 60.8 ± 12
UGAGCAUACAUGUAAACCAAA | 46.9 ± 8.2 | 64.7 ± 6.8 | 61.3 ± 24 | 19.3 ± 0.59
UUGGUGGACAUGUAAACCAAA | 10.2 ± 1.6 | 9.15 ± 0.72 | 13.4 ± 0.89 | 49.8 ± 8.9
UCCAUUGACAUGUAAACCAAA | 92 ± 21 | 87.4 ± 5 | 88.9 ± 3 | 90.5 ± 8.2
UAUCACUACAUGUAAACCAAA | 60.7 ± 8.9 | 38.3 ± 4.5 | 68.1 ± 2.5 | 117 ± 25
UCUAUUCACAUGUAAACCAAA | 96.1 ± 17 | 53.5 ± 3 | 79.1 ± 4.6 | 71.8 ± 15
UUAAUUAACAUGUAAACCAAA | 100 ± 13 | 74.2 ± 18 | 95.6 ± 8 | 105 ± 12
UUGUGCGACAUGUAAACCAAA | 73.6 ± 15 | 70.1 ± 11 | 95.7 ± 6.4 | 90.7 ± 16
UUGGACCACAUGUAAACCAAA | 15.1 ± 3.8 | 64.6 ± 3.3 | 72 ± 8.6 | 15.4 ± 5.2
UCCGCGUACAUGUAAACCAAA | 110 ± 22 | 65.9 ± 7.5 | 69 ± 6.2 | 52.8 ± 6.7
UCAGAAUACAUGUAAACCAAA | 93.6 ± 15 | 56.1 ± 8.3 | 60.6 ± 4.8 | 50.1 ± 4
UCAGUUUACAUGUAAACCAAA | 86.2 ± 11 | 53.1 ± 2.3 | 62 ± 5.7 | 72.6 ± 7.6
UGCGAGCACAUGUAAACCAAA | 89.7 ± 6.4 | 74.8 ± 2.2 | 69.5 ± 5.1 | 35.2 ± 5.8
UGGCGAGACAUGUAAACCAAA | 63.3 ± 4.9 | 13.7 ± 1.1 | 9.15 ± 1.6 | 43.9 ± 5.4
UUGUUGAACAUGUAAACCAAA | 68.6 ± 2.9 | 57 ± 4.9 | 50.7 ± 1.7 | 27.8 ± 11

Sequence | cell viability (3LL) [%] | cell viability (H460) [%] | cell viability (HeyA8) [%] | cell viability (M565) [%]
UGAGCUAACAUGUAAACCAAA | 82.2 ± 17 | 66.1 ± 1.5 | 96.7 ± 8.9 | 31.3 ± 4.7
UGUAAGUACAUGUAAACCAAA | 57.6 ± 13 | 40.5 ± 2.8 | 37.8 ± 1 | 39.8 ± 2
UACAACGACAUGUAAACCAAA | 97.8 ± 15 | 85.7 ± 9.1 | 87 ± 4.9 | 85.4 ± 7.2
UCCUCAUACAUGUAAACCAAA | 89.5 ± 20 | 80.5 ± 1.2 | 91.3 ± 3.6 | 61 ± 14
UGCGGGUACAUGUAAACCAAA | 47.9 ± 8.5 | 21.8 ± 0.91 | 3.18 ± 0.085 | 21.5 ± 1.1
UGUAAACACAUGUAAACCAAA | 90.2 ± 10 | 71.6 ± 22 | 90 ± 12 | 61.2 ± 9.6
UACAUUUACAUGUAAACCAAA | 92 ± 8.8 | 68.8 ± 4.8 | 38.6 ± 2.9 | 70.4 ± 10
UGGGCUUACAUGUAAACCAAA | 40.6 ± 11 | 32.1 ± 7.1 | 7.36 ± 0.7 | 24.4 ± 8.8
UCCAUGCACAUGUAAACCAAA | 13.5 ± 2.4 | 36.3 ± 3.3 | 10.7 ± 0.38 | 11.3 ± 1.9
UAAGUGAACAUGUAAACCAAA | 86.9 ± 6.6 | 58.1 ± 2.2 | 81.7 ± 15 | 59.5 ± 12
UCUGUUUACAUGUAAACCAAA | 97.7 ± 14 | 76.2 ± 2.4 | 73.9 ± 2 | 62.1 ± 23
UGGCUUAACAUGUAAACCAAA | 95 ± 12 | 55.6 ± 7.8 | 40.7 ± 6.1 | 38.5 ± 6.3
UGCCGAGACAUGUAAACCAAA | 82.5 ± 9.4 | 83.6 ± 7 | 84.9 ± 4 | 47.2 ± 3.6
UCAGCGGACAUGUAAACCAAA | 100 ± 16 | 64.9 ± 5.4 | 78 ± 12 | 60.3 ± 14
UGUUACCACAUGUAAACCAAA | 11.1 ± 6 | 34.3 ± 3.1 | 12.1 ± 1.1 | 9.86 ± 2.8
UAGGUCUACAUGUAAACCAAA | 44.8 ± 5.1 | 21.7 ± 6.6 | 12.5 ± 0.75 | 14.6 ± 2.7
UCCUCAGACAUGUAAACCAAA | 89.9 ± 22 | 60 ± 3.8 | 95.3 ± 4.5 | 39.6 ± 8.1
UGUAAGAACAUGUAAACCAAA | 92.2 ± 4.3 | 57.7 ± 6.8 | 64 ± 1.6 | 86 ± 7.6
UAGCCUCACAUGUAAACCAAA | 15.8 ± 7.8 | 59.3 ± 2.5 | 34.7 ± 4.7 | 7.76 ± 3.1
UACAUAUACAUGUAAACCAAA | 93.6 ± 12 | 76.8 ± 4.3 | 52.8 ± 4.3 | 73.6 ± 13
UGUAUUAACAUGUAAACCAAA | 95.4 ± 8.9 | 91.8 ± 11 | 93.7 ± 6.4 | 77.9 ± 18
UCAGCCAACAUGUAAACCAAA | 93.1 ± 12 | 57.8 ± 3.6 | 84.3 ± 3.5 | 57.8 ± 7
